{"source": "PubChem BioAssay AID686979", "about": "(National Center for Advancing Translational Sciences (NCATS), 2013)", "note": "The campaign covered roughly 420,000 compounds. About 50,000 (12%) were called active. Inconclusive results, whose numbers are uncertain, are shown with a selection of clear calls. Calls follow the shape of the dose curve; as a rule, active = well fitted inhibition curve with a large enough effect; inconclusive = small, poorly fitted or top-dose-only effect; inactive = flat fitted curve, though single readings scatter. Potencies of inconclusive entries are left out as doubtful fits. % is scaled to controls: 0 for no effect and ±100 for the full control effect; potency is read from the fitted curve at half-maximal effect; tags tell the direction and shape of the fitted curve.", "data": [{"experiment": "qHTS for Inhibitors of human tyrosyl-DNA phosphodiesterase 1 (TDP1): qHTS in cells in presence of CPT; also: nearly all actives have a fitted effect of over 55% in size", "settings": "chicken DT40 Tdp1-/-;hTDP1 cells + 20 nM CPT, ATP luminescence, 48 h; activity change, negative = growth inhibition: at 46.2 µM (top of the series)", "summary_of_the_method": "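Chicken DT40 Tdp1-/- cells stably complemented with human TDP1 were seeded at 400 cells/well in medium containing 20 nM camptothecin, exposed to pin-transferred compounds, and grown at 37 °C for at least 48 hr. Viability was read as ATP luminescence.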", "values": [{"smiles": "CC(C)(C)NC(=O)CCCSc1nc2ccccc2s1", "Potency": "inconclusive [inhibitor, single point]"}, {"smiles": "Cc1onc(-c2c(Cl)cccc2Cl)c1C(=O)NC(=S)Nc1sc2c(c1C(N)=O)CCC(C)C2", "note": "(stereo not drawn)", "Potency": "inconclusive [inhibitor, partial curve]"}, {"smiles": "O=C(/C=C/NNC(=O)c1ccc(Br)cc1)c1ccccc1", "Potency": "active: 2.91 µM"}, {"smiles": "O=C(c1ccc2ccccc2c1)C1CCCN(C(=O)c2cnccn2)C1", "note": "(stereo not drawn)", "Potency": "inconclusive [inhibitor, single point]"}, {"smiles": "O=[N+]([O-])c1ccc(NC2CCN(Cc3ccccc3)CC2)c([N+](=O)[O-])c1", "Potency": "inconclusive [inhibitor, single point]"}, {"smiles": "O=C1c2ccccc2/C(=C\\c2ccc(Br)s2)N1c1ccccc1", "Potency": "inconclusive [inhibitor, single point]"}, {"smiles": "CCCCNC(=O)C[C@@H]1C[C@@]2(C(=O)OCC)CCC=C2N(Cc2cccc3ccccc23)C1=O", "Potency": "active: 16.4 µM"}, {"smiles": "CCN1CCN(C(=O)c2ccc(CNS(=O)(=O)c3cccc(OC)c3)cc2)CC1", "Potency": "inconclusive [inhibitor, full curve, poor fit]"}, {"smiles": "CCOC(=O)c1cc(=O)c2ccc(OCC(=O)Nc3ccc(F)cc3)cc2o1", "activity change, negative = growth inhibition": "inactive: -5.92%"}, {"smiles": "CN1CCN(C(=O)c2cc3c(c(-c4cccc(C#CC(C)(C)O)c4)n2)[C@@H](CCO)N(S(=O)C(C)(C)C)C3)CC1", "note": "(stereo partly drawn)", "activity change, negative = growth inhibition": "inactive: -3.91%"}, {"smiles": "CCn1ncc(/C=N/NC(=O)c2ccc3c(c2)OCO3)c1C", "Potency": "inconclusive [inhibitor, single point]"}, {"smiles": "C=C1C2=C(C(=O)N1OC)[C@@H](O)[C@@](C)(O)[C@@H](CCCCC)O2", "Potency": "active: 14.6 µM"}, {"smiles": "COC(=O)c1c(-c2ccc(Cl)cc2)noc1N1CCN(c2ccccc2OC)CC1", "Potency": "inconclusive [inhibitor, single point]"}, {"smiles": "COc1ccccc1S(=O)(=O)Cc1ccc(C(=O)N2CCN(c3cc(Cl)ccc3C)CC2)o1", "Potency": "inconclusive [inhibitor, single point]"}, {"smiles": "CCOC(=O)Cn1cc(C(=O)C(C)(C)C)c2ccccc21", "Potency": "inconclusive [inhibitor, single point]"}, {"smiles": "O=C(c1cccc(Cl)c1)N1CCC(C(=O)N2CCN(Cc3ccccc3)CC2)CC1", "Potency": "inconclusive [inhibitor, partial curve]"}, {"smiles": "NS(=O)(=O)c1ccc(CCNC(=O)c2cc(-c3ccccn3)nc3ccc(Br)cc23)cc1", "Potency": "inconclusive [inhibitor, partial curve]"}, {"smiles": "CCO[C@H]1OC(C(=O)N2CCN(Cc3ccc4c(c3)OCO4)CC2)=C[C@@H](c2ccc(C(F)(F)F)cc2)[C@@H]1CCCO", "Potency": "active: 18.4 µM"}]}]}
